Results published in the supplement of paper PMC4604168 (melanoma cell lines).
The list shows a part of the results. Single values are uncertain, as repeats are few or missing.

Key:
Assay in all cases: cell count relative to DMSO control; melanoma cells; higher = more viable cells
Settings in all cases: library dose: low library concentration; 72 h
MZ2-MEL = system: MZ2-MEL
MeWo = system: MeWo
RPMI7951 = system: RPMI7951
RVH-421 = system: RVH-421
SkMel28 = system: SkMel28
SkMel2 = system: SkMel2
SkMel30 = system: SkMel30
SkMel5 = system: SkMel5
UACC257 = system: UACC257
UACC62 = system: UACC62
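Further: cell number obtained by counting DAPI-stained nuclei in high-throughput microscope images with image analysis software, screen run in 1,536-well plates.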

SMILES	cell count (MZ2-MEL) [%]	cell count (MeWo) [%]	cell count (RPMI7951) [%]	cell count (RVH-421) [%]	cell count (SkMel28) [%]	cell count (SkMel2) [%]	cell count (SkMel30) [%]	cell count (SkMel5) [%]	cell count (UACC257) [%]	cell count (UACC62) [%]
O=c1[nH]nc(Sc2ncc([N+](=O)[O-])s2)n1-c1ccc2c(c1)OCCO2 + C/C(O)=C(\C#N)C(=O)Nc1cc(Br)ccc1Br [LFM-A13] (first compound 0.2 µM, partner dose 2 µM)	103	101	106	85	98.7	102	99.6	96.9	98.7	92.6
CCCCCCCCCCCCCCCCCCOP(=O)([O-])OC1CC[N+](C)(C)CC1 [Perifosine] + C/C(O)=C(\C#N)C(=O)Nc1cc(Br)ccc1Br [LFM-A13] (first compound 0.4 µM, partner dose 2 µM)	96	115	58.6	85.7	79.7	96.1	59.6	85.8	108	84.5
CC(=O)O[C@@]12CO[C@@H]1C[C@H](O)[C@@]1(C)C(=O)[C@H](O)C3=C(C)[C@@H](OC(=O)[C@H](O)[C@@H](NC(=O)OC(C)(C)C)c4ccccc4)C[C@@](O)([C@@H](OC(=O)c4ccccc4)[C@H]21)C3(C)C [Docetaxel] + C/C(O)=C(\C#N)C(=O)Nc1cc(Br)ccc1Br [LFM-A13] (first compound 0.0001 µM, partner dose 2 µM)	52.8	38.3	37.8	64.2	34.3	41	41.8	73.8	31.8	32.8
CS(=O)(=O)CCNCc1ccc(-c2ccc3ncnc(Nc4ccc(OCc5cccc(F)c5)c(Cl)c4)c3c2)o1 [lapatinib] + O=C(Oc1ccc([N+](=O)[O-])cc1)N1CCC(C(O)(c2ccc3c(c2)OCO3)c2ccc3c(c2)OCO3)CC1 [JZL184] (first compound 0.8 µM, partner dose 1 µM)	92.7	92.6	87.4	116	89.1	99.1	64.3	96.4	120	80.7
Cc1cc(Nc2cc(N3CCN(C)CC3)nc(/C=C/c3ccccc3)n2)n[nH]1 + Cc1cc(SCc2sc(-c3ccc(C(F)(F)F)c(F)c3)nc2C)ccc1OCC(=O)O [GW0742] (first compound 0.04 µM, partner dose 2 µM)	92.3	86.4	103	107	92.7	99.2	79.4	100	122	98.8
Cn1cnc2c(F)c(Nc3ccc(Br)cc3Cl)c(C(=O)NOCCO)cc21 [selumetinib] + O=C(Oc1ccc([N+](=O)[O-])cc1)N1CCC(C(O)(c2ccc3c(c2)OCO3)c2ccc3c(c2)OCO3)CC1 [JZL184] (first compound 0.015 µM, partner dose 1 µM)	106	90.9	98	76.3	75.5	84.7	101	93.9	85.3	88.8
Cc1ccc(Nc2nccc(N(C)c3ccc4c(C)n(C)nc4c3)n2)cc1S(N)(=O)=O [Pazopanib] + O=C(Oc1ccc([N+](=O)[O-])cc1)N1CCC(C(O)(c2ccc3c(c2)OCO3)c2ccc3c(c2)OCO3)CC1 [JZL184] (first compound 0.4 µM, partner dose 1 µM)	89	113	98.4	108	88.5	96	81.1	83.8	98.5	105
Nc1nc(F)nc2c1ncn2[C@@H]1O[C@H](CO)[C@@H](O)[C@@H]1O [fludarabine] + C/C(O)=C(\C#N)C(=O)Nc1cc(Br)ccc1Br [LFM-A13] (first compound 0.2 µM, partner dose 2 µM)	103	37.6	88.8	77.6	74.7	6.78	22.8	61	104	99.5
CC(=O)c1c(C)c2cnc(Nc3ccc(N4CCNCC4)cn3)nc2n(C2CCCC2)c1=O [palbociclib] + O=C(Oc1ccc([N+](=O)[O-])cc1)N1CCC(C(O)(c2ccc3c(c2)OCO3)c2ccc3c(c2)OCO3)CC1 [JZL184] (first compound 0.04 µM, partner dose 1 µM)	76.8	73.2	76.3	86.4	74.1	79.9	72.8	75.2	87.5	73.1
C[C@@H](Oc1cc(-c2cnn(C3CCNCC3)c2)cnc1N)c1c(Cl)ccc(F)c1Cl [Crizotinib] + O=C(Oc1ccc([N+](=O)[O-])cc1)N1CCC(C(O)(c2ccc3c(c2)OCO3)c2ccc3c(c2)OCO3)CC1 [JZL184] (first compound 0.2 µM, partner dose 1 µM)	103	99.3	90.7	98.8	102	103	117	100	87	85.8
CN(c1ncccc1CNc1nc(Nc2ccc3c(c2)CC(=O)N3)ncc1C(F)(F)F)S(C)(=O)=O + Cc1cc(SCc2sc(-c3ccc(C(F)(F)F)c(F)c3)nc2C)ccc1OCC(=O)O [GW0742] (first compound 0.08 µM, partner dose 2 µM)	94	98.9	94.2	84.4	68.8	92	118	76.7	84.7	76.9
CCCCCCCCc1ccc(CCC(N)(CO)CO)cc1 [fingolimod] + Cc1cc(SCc2sc(-c3ccc(C(F)(F)F)c(F)c3)nc2C)ccc1OCC(=O)O [GW0742] (first compound 2 µM, partner dose 2 µM)	69.2	105	95.3	13.7	106	98.8	81.2	113	93.3	80.1
OCc1c[nH]c2ccccc12 [Indole-3-carbinol] + O=C(Oc1ccc([N+](=O)[O-])cc1)N1CCC(C(O)(c2ccc3c(c2)OCO3)c2ccc3c(c2)OCO3)CC1 [JZL184] (first compound 0.8 µM, partner dose 1 µM)	93.4	120	112	94.4	86.9	102	104	94.5	75.9	83.6
CCN(CC)CCNC(=O)c1c(C)[nH]c(/C=C2\C(=O)Nc3ccc(F)cc32)c1C [sunitinib] + O=C(Oc1ccc([N+](=O)[O-])cc1)N1CCC(C(O)(c2ccc3c(c2)OCO3)c2ccc3c(c2)OCO3)CC1 [JZL184] (first compound 0.4 µM, partner dose 1 µM)	103	90.3	105	111	102	113	79.1	107	84.7	89.1
Cc1cn(-c2cc(NC(=O)c3ccc(C)c(Nc4nccc(-c5cccnc5)n4)c3)cc(C(F)(F)F)c2)cn1 [nilotinib] + O=C(Oc1ccc([N+](=O)[O-])cc1)N1CCC(C(O)(c2ccc3c(c2)OCO3)c2ccc3c(c2)OCO3)CC1 [JZL184] (first compound 0.2 µM, partner dose 1 µM)	92.5	97.3	98.9	117	99.2	96.9	88.5	90.4	96	104
COc1cc([C@@H]2c3cc4c(cc3[C@@H](O[C@@H]3O[C@@H]5CO[C@@H](C)O[C@H]5[C@H](O)[C@H]3O)[C@H]3COC(=O)[C@H]23)OCO4)cc(OC)c1O [etoposide] + O=C(Oc1ccc([N+](=O)[O-])cc1)N1CCC(C(O)(c2ccc3c(c2)OCO3)c2ccc3c(c2)OCO3)CC1 [JZL184] (first compound 0.02 µM, partner dose 1 µM)	92.9	104	95.2	94.3	94.5	90.8	89.6	88.2	107	76.3
Cc1cc(Nc2cc(N3CCN(C)CC3)nc(/C=C/c3ccccc3)n2)n[nH]1 + C/C(O)=C(\C#N)C(=O)Nc1cc(Br)ccc1Br [LFM-A13] (first compound 0.04 µM, partner dose 2 µM)	98.2	97.9	107	87	89.7	113	74.5	93.1	87.8	80.7
CC[C@]1(O)C[C@H]2CN(CCc3c([nH]c4ccccc34)[C@@](C(=O)OC)(c3cc4c(cc3OC)N(C=O)[C@H]3[C@@](O)(C(=O)OC)[C@H](OC(C)=O)[C@]5(CC)C=CCN6CC[C@]43[C@@H]65)C2)C1 [vincristine] + O=C(Oc1ccc([N+](=O)[O-])cc1)N1CCC(C(O)(c2ccc3c(c2)OCO3)c2ccc3c(c2)OCO3)CC1 [JZL184] (first compound 0.0001 µM, partner dose 1 µM)	98.9	71.5	75.6	85.4	71.7	100	48.1	82.7	55	44.9
O=c1[nH]nc(Sc2ncc([N+](=O)[O-])s2)n1-c1ccc2c(c1)OCCO2 + Cc1cc(SCc2sc(-c3ccc(C(F)(F)F)c(F)c3)nc2C)ccc1OCC(=O)O [GW0742] (first compound 0.2 µM, partner dose 2 µM)	114	108	99.3	82.2	97.1	114	95.7	95	106	90.3
C[C@@H](N)c1ccc(C(=O)Nc2ccnc3[nH]ccc23)cc1 + O=C(Oc1ccc([N+](=O)[O-])cc1)N1CCC(C(O)(c2ccc3c(c2)OCO3)c2ccc3c(c2)OCO3)CC1 [JZL184] (first compound 0.4 µM, partner dose 1 µM)	76.3	93.6	59.2	61.6	75.9	98.3	109	74.8	75.7	78.8
N#CC[C@H](C1CCCC1)n1cc(-c2ncnc3[nH]ccc23)cn1 [ruxolitinib] + Cc1cc(SCc2sc(-c3ccc(C(F)(F)F)c(F)c3)nc2C)ccc1OCC(=O)O [GW0742] (first compound 1 µM, partner dose 2 µM)	103	98.8	101	90	112	103	112	103	86.6	113
